Results on four substances are retold here after article PMC9827817.

The chains behind the UniProt entries cited, without tags or fusion partners.
UniProt Q9ULV4: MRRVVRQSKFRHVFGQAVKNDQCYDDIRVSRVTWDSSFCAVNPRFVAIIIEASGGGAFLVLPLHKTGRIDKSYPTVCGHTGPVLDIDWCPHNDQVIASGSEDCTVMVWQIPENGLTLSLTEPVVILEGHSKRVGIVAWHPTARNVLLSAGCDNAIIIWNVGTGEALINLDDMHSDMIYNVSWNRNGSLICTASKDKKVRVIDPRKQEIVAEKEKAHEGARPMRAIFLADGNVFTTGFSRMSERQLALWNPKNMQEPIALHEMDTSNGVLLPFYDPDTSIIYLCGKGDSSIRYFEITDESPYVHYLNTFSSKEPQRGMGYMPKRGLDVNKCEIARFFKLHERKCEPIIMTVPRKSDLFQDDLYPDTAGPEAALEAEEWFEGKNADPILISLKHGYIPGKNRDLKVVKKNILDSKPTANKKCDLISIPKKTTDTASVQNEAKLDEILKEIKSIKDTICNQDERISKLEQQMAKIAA
UniProt Q9P258: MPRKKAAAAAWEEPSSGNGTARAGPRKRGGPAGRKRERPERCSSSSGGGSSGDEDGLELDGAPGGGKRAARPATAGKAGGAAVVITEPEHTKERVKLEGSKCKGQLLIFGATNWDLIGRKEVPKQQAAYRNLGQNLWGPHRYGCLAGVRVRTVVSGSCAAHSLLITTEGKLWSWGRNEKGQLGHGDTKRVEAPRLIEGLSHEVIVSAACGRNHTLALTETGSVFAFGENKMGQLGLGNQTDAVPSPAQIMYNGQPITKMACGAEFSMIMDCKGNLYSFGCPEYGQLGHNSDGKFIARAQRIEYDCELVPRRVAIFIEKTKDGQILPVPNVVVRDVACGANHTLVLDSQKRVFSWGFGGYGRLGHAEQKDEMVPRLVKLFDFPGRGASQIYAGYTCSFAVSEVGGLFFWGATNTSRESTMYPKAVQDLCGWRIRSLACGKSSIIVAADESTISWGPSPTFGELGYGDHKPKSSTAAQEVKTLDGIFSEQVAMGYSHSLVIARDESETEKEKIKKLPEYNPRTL
UniProt P63172: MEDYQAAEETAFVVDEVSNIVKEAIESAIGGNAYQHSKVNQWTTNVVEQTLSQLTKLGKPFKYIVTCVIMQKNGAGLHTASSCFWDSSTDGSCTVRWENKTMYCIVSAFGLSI

These are yes or no findings as the source states them, for the method shown. Binding seen in cells or lysates may run through a third protein. Some binding calls cover weakened binding; strength is not graded here. For some of these results: Sequences can lack the tags named with a protein.

In experiment [1] the target is CORO1C in gastric cancer cell lysate (human (endogenous in SGC-7901 and BGC-823)) (UniProt Q9ULV4). Put plainly: co-IP; gastric cancer cell lysates (25 mM Tris pH 7.6, 150 mM NaCl, 1% Nonidet P-40, 1 mM EDTA); protein A agarose preloaded with antibodies or normal IgG, overnight at 4°C; western blot; some in cells overexpressing PAK4S99A or PAK4S99D. For orientation: In western blotting, separated proteins are transferred to a membrane and probed.

Experiment [2] deals with RCC2 in SGC-7901 cell lysate (UniProt Q9P258). The experiment is described as above.
The target in another experiment is GST-PAK4 (UniProt O96013). Put plainly: pull-down; GST or GST fusion proteins from E. coli BL21 immobilised on Glutathione Sepharose 4B; incubated with in vitro translated Flag-tagged protein at 4°C overnight; three washes with lysis buffer; western blot with anti-Flag M2; only the target purified.
The target in a further experiment is GST-PAK4S99A (UniProt O96013). The experiment is described as above.
For another experiment, the target named is T1, GST-PAK4S99D (UniProt O96013).
T1 sequence: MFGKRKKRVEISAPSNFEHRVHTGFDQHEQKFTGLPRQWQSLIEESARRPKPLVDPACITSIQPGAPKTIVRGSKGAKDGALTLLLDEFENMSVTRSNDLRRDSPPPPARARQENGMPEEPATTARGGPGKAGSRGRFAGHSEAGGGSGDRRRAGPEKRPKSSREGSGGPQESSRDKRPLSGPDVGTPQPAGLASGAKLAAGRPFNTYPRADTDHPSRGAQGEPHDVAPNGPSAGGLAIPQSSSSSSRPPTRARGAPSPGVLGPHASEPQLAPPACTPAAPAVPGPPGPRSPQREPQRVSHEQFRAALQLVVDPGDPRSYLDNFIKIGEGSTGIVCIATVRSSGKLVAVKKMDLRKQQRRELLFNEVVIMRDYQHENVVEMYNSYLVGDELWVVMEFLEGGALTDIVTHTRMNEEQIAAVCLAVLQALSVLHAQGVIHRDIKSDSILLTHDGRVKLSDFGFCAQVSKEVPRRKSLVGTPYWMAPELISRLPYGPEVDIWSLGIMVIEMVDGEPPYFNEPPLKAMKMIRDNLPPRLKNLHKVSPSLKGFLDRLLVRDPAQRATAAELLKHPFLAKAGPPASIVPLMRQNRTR
The description is as above.

Another experiment concerns the target GST-RCC2 (UniProt Q9P258). The experiment is described as above.

With “PAK4 in gastric cancer cell lysate (from UniProt O96013 1-591) (enzyme)”, the binding result in experiment [1] and in experiment [2] was “binds” each time.
Consider “PAK4S99A overexpressed in gastric cancer cells (from UniProt O96013 1-591) (enzyme)”, for which the binding result in experiment [1] is listed as “binds”.
For the substance “in vitro translated Tctex-1 (from UniProt P63172 1-113)”, the binding entry in the experiment with GST-PAK4, in the experiment with GST-PAK4S99A and in the experiment with GST-PAK4S99D was “no binding” throughout.
Regarding “in vitro-translated CORO1C (full length, Flag-tagged) (from UniProt Q9ULV4 1-474)”, the binding result with GST-PAK4, with GST-PAK4S99A, in the experiment with GST-PAK4S99D and with GST-RCC2 was “binds” in each case.
